Data taken from the BET-seq Pho4 binding data (Le et al. 2018).
The other results are listed elsewhere or left out. The energies were worked out here from pooled read counts, against the library average; single values are noisy.

Biological target: T1, Pho4 (S. cerevisiae) (UniProt P07270)
T1 sequence: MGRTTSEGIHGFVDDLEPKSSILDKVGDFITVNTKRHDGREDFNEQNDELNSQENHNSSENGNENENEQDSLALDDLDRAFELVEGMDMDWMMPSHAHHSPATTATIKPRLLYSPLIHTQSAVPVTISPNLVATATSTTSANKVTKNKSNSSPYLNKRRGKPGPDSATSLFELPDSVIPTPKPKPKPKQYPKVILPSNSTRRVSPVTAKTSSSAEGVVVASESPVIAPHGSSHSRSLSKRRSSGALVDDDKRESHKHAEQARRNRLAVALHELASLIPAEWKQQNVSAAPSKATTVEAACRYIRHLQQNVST
Test: relative binding free energy (BET-seq); higher = weaker binding
Conditions: reference: library average

| Sequence | relative binding free energy |
| --- | --- |
| GTTGTCACGTGAATGC | 0.21 kcal/mol |
| GCTGTCACGTGTCTGG | 0.21 kcal/mol |
| ACTTTCACGTGGGTGG | 0.15 kcal/mol |
| GGAACCACGTGGTTGG | -0.09 kcal/mol |
| GGGTGCACGTGCTTCA | 0.13 kcal/mol |
| GGGCTCACGTGAGTGC | 0.41 kcal/mol |
| AGGCTCACGTGGGTCG | -0.04 kcal/mol |
| TAATACACGTGTCGGT | 0.1 kcal/mol |
| GTTGACACGTGCGGGA | -0.04 kcal/mol |
| TTGTCCACGTGGAGTG | -0.02 kcal/mol |
| GTACGCACGTGATGTT | 0 kcal/mol |
| AGTGACACGTGTGTTA | 0.15 kcal/mol |
| TAAGTCACGTGGTGTG | 0.03 kcal/mol |
| TGCGGCACGTGGGCTG | -0.28 kcal/mol |
| GGTCGCACGTGGAGGG | -0.03 kcal/mol |
| TATGTCACGTGGTCAT | 0 kcal/mol |
| TATTGCACGTGATGGC | 0.12 kcal/mol |
| TAGCTCACGTGTGGAT | 0.17 kcal/mol |
| TGGACCACGTGTTTAT | -0.08 kcal/mol |
| TAAGACACGTGGTGTA | -0.09 kcal/mol |

| Sequence | relative binding free energy |
| --- | --- |
| TCTAACACGTGTGGGA | 0.13 kcal/mol |
| TTTAACACGTGGTCGT | 0.01 kcal/mol |
| TTGCGCACGTGAGGAG | 0.08 kcal/mol |
| TTCGTCACGTGGTGCG | -0.05 kcal/mol |
| GGCTGCACGTGTTGAG | 0.2 kcal/mol |
| TAGAGCACGTGAGTGA | -0.01 kcal/mol |
| TGTTGCACGTGGGCGA | -0.18 kcal/mol |
| GGTCCCACGTGGTAGG | -0.04 kcal/mol |
| ATTTGCACGTGTAAGC | 0.11 kcal/mol |
| TCGTGCACGTGTGCGG | -0.01 kcal/mol |
| TCATGCACGTGGGGGT | -0.24 kcal/mol |
| GTGTGCACGTGAGCGA | 0.08 kcal/mol |
| TGTCTCACGTGGTATT | 0.14 kcal/mol |
| GGTTGCACGTGTACAG | 0 kcal/mol |
| AGGAGCACGTGTGATA | -0.01 kcal/mol |
| GGGTTCACGTGAGCTG | 0.45 kcal/mol |
| TTCTTCACGTGTGTAA | 0.34 kcal/mol |
| TGTTTCACGTGGTACT | 0.15 kcal/mol |
| TAATCCACGTGTTGGG | 0.01 kcal/mol |
| TTATTCACGTGCAGGA | 0.26 kcal/mol |

| Sequence | relative binding free energy |
| --- | --- |
| CTGGGCACGTGGGGGT | -0.24 kcal/mol |
| AGGTTCACGTGATACG | 0.26 kcal/mol |
| GAGGCCACGTGGGAGT | 0.04 kcal/mol |
| TGCTCCACGTGTGGGT | -0.06 kcal/mol |
| GGTGACACGTGAGTGA | 0.19 kcal/mol |
| GTATACACGTGTGGTC | 0.07 kcal/mol |
| GGCTTCACGTGTGGCT | 0.21 kcal/mol |
| CGGGTCACGTGTATGT | 0.13 kcal/mol |
| TGGGGCACGTGCACGA | -0.11 kcal/mol |
| TTGGCCACGTGGCAGT | -0.13 kcal/mol |
| GTGGCCACGTGAGATG | 0.24 kcal/mol |
| CTTGGCACGTGTGGCG | 0.06 kcal/mol |
| ATGTTCACGTGAGTTG | 0.39 kcal/mol |
| GGTGCCACGTGTGTGC | -0.16 kcal/mol |
| TAAGGCACGTGATCGT | -0.09 kcal/mol |
| ATTAGCACGTGGTCAT | -0.18 kcal/mol |
| GTGGGCACGTGTGCCG | -0.19 kcal/mol |
| GGATCCACGTGTTGTA | 0.06 kcal/mol |
